Measurements: PubChem BioAssay AID1345082 (National Center for Advancing Translational Sciences (NCATS), 2018)
Among all 94,000 compounds or so, about 4,000 (4.3%) were called active. Inconclusive results, whose numbers are uncertain, are shown with a selection of clear calls. Calls follow the shape of the dose curve; as a rule, active = well fitted inhibition curve with a large enough effect; inconclusive = small, poorly fitted or top-dose-only effect; inactive = no such curve, though single readings can be large or run the other way. Where the call is inconclusive, the potency comes from a doubtful curve fit.
Potency is read from the fitted curve at half-maximal effect; tags tell the direction and shape of the fitted curve.

Experiment: Cytotoxic Profiling in NIH 3T3 Cell Line of Diverse Libraries Using Quantitative High-Throughput Screening; also: nearly all actives have a fitted effect of over 55% in size
Settings: NIH 3T3 viability, CellTiter-Glo ATP luminescence, 48-72 h; series mostly up to 96.7 µM
Summary of the method: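 Cytotoxicity is measured as loss of cellular ATP: NIH 3T3 cells (400/well) are exposed to compound for 48 or 72 hr at 37 °C, then CellTiter-Glo luminescence is imaged after 10 min at room temperature.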
With `O=C(NCc1cccnc1)c1cn2cc(-c3ccc(C(F)(F)F)cc3)sc2n1` the Potency was inconclusive: 35.5 µM [inhibitor, partial curve, poor fit].
For `Cn1ccnc1CN1CCC2(CC1)OC(=O)N(Cc1ccccc1F)C2(C)c1ccccc1` (stereo unspecified), the Potency was inconclusive: 79.4 µM [inhibitor, partial curve, poor fit].
In the case of `CCCNC(=O)[C@@H]1Cc2cn(Cc3ccncc3)c3cccc(c23)[C@H](CC(C)C)N1`, the Potency is reported as active: 25.1 µM.
With `Cc1nc(CN2C[C@H](C(=O)Nc3cccc(Cl)c3)C[C@@H]2c2ccc(F)cc2)cs1` the Potency was active: 50.1 µM.
For `CC1(COCC2CC2)COc2ccc(C(=O)Nc3ccccc3)cc2N1` (stereo unspecified), the Potency was inconclusive: 39.8 µM [inhibitor, full curve].
In the case of `O=C(Nc1ccccc1)N[C@H]1CO[C@H]2[C@@H]1OC[C@@H]2Nc1nccc(-c2cccs2)n1`, the Potency is reported as inconclusive: 39.8 µM [inhibitor, partial curve, poor fit].
With `CC1(C)[C@H]2CC[C@@H](CNC(=O)c3cccc4[nH]ccc34)[C@@H]1C2` the Potency was inconclusive: 79.4 µM [inhibitor, partial curve, poor fit].
For `Cc1noc(C)c1-c1cc2c(cc(C)n2C)c(-c2ccnn2C)n1`, the Potency was inconclusive: 50.1 µM [inhibitor, partial curve].
With `O=C(O)c1ccc(CN2CCOC[C@H]2c2ncc(-c3cccnc3)[nH]2)cc1` the Potency was “inactive”.
For `CCC(C)N1Cc2cc(NC(=O)Cc3cccc(OC)c3)ccc2OCC1=O` (stereo unspecified), the Potency was inconclusive: 39.8 µM [inhibitor, full curve, poor fit].
With `COc1ccc(CCNC(=O)c2ccc3c(c2)N(C)C2CCCN2C3=O)cc1OC` (stereo unspecified) the Potency was “inactive”.
In the case of `c1ccc(CCn2cnc3cccnc32)cc1`, the Potency is reported as “inactive”.
In the case of `COC(=O)CNC(=O)N1CCC(OC2CCN(Cc3ccccc3)CC2)CC1`, the Potency is reported as “inactive”.
For `COc1ccc(C(=O)NC2CCN(c3cn[nH]c(=O)c3)CC2)cc1`, the Potency was “inactive”.
For `Fc1ccc(CNCc2cccnc2N2CCN(c3ccccn3)CC2)cc1F`, the Potency was inconclusive: 89.1 µM [inhibitor, partial curve, poor fit].
With `COc1ccc(C(=O)N2CCC3(CC2)NC(=O)c2ccccc2O3)cc1` the Potency was inconclusive: 100 µM [inhibitor, partial curve, poor fit].
With `O=C([C@@H]1C[C@H](F)CN1S(=O)(=O)c1cccc(Cl)c1)N1CCc2ccccc2C1` the Potency was inconclusive: 44.7 µM [inhibitor, partial curve, poor fit].
For `COCCCNC(=O)c1ccc2oc(-c3ccncc3)nc2c1`, the Potency was “inactive”.
With `O=C1NC(=NC2CCCC2)C2(CCCN(Cc3cccnc3)C2)N1c1cc(F)cc(F)c1` (stereo unspecified) the Potency was active: 25.1 µM.
With `Cc1ccc(CC(=O)N2CCN(c3cc(-c4ccccc4)[nH]n3)CC2)cc1` the Potency was inconclusive: 44.7 µM [inhibitor, partial curve, poor fit].
In the case of `COc1ccc2cc1Nc1ccc(cc1)C[C@H](NCc1ccc3c(c1)CCO3)C(=O)N(C)[C@H](C(=O)NCCC(C)C)C2`, the Potency is reported as inconclusive: 28.2 µM [inhibitor, partial curve].
With `N#Cc1cccnc1-c1ccc(C(=O)O)cc1` the Potency was “inactive”.
In the case of `COc1ccc(-c2cc(N3CCCC(NC(=O)c4cccc(OC)c4OC)C3)n[nH]2)cc1` (stereo unspecified), the Potency is reported as inconclusive: 50.1 µM [inhibitor, partial curve, poor fit].
In the case of `O=C(N[C@@H]1C[C@@H]2CO[C@H](c3ccccc3)C[C@@H]2C1)c1cc2ccccc2o1`, the Potency is reported as inconclusive: 50.1 µM [inhibitor, single point].
For `c1cc(N2CCOCC2)ccc1-c1cc(-c2cn[nH]c2)c2cncn2c1`, the Potency was inconclusive: 100 µM [inhibitor, single point].
In the case of `N#Cc1ccc(S(=O)(=O)N[C@H](Cc2ccccc2)C(=O)N2CCOCCNC(=O)CC2)cc1`, the Potency is reported as “inactive”.
With `Cc1cccc(C(=O)N2CCC[C@H]2c2nc(-c3ccccc3)no2)c1` the Potency was inconclusive: 56.2 µM [inhibitor, partial curve, poor fit].
With `Cc1ccc(C(=O)N2CCC3(CCC3N3CCOCC3)CC2)s1` (stereo unspecified) the Potency was “inactive”.
For `Clc1ccccc1C1Cn2cnc(-c3nc(-c4ccccn4)no3)c2CO1` (stereo unspecified), the Potency was inconclusive: 56.2 µM [inhibitor, partial curve, poor fit].
For `COCCn1c2c(c(=O)n1-c1ccccc1)CCN(C(=O)c1cc3ccccc3[nH]1)C2`, the Potency was inconclusive: 50.1 µM [inhibitor, partial curve, poor fit].
With `O=c1c2c3c(nn2ccn1Cc1cc(F)ccc1F)CCCC3` the Potency was inconclusive: 63.1 µM [inhibitor, partial curve, poor fit].
In the case of `O=C(NCc1ccc(F)cc1)[C@@H]1C[C@@H](c2ccc(F)cc2)N([S+](=O)([O-])c2cccnc2)C1`, the Potency is reported as inconclusive: 20 µM [inhibitor, full curve, poor fit].
In the case of `COc1cccc(S(=O)(=O)N2CCC(n3cnnc3-c3ccccc3)CC2)c1`, the Potency is reported as inconclusive: 44.7 µM [inhibitor, partial curve, poor fit].
In the case of `CC(C)(C)c1ccc(C(=O)N2CC[C@H]3NC(=O)N(Cc4ccccc4)C(=O)[C@H]32)cc1`, the Potency is reported as inconclusive: 112 µM [inhibitor, partial curve, poor fit].
For `CN(C1CCc2ccccc21)[S+](=O)([O-])c1cccc(C(F)(F)F)c1` (stereo unspecified), the Potency was inconclusive: 44.7 µM [inhibitor, partial curve, poor fit].
For `CC(C)Oc1ccc(-c2noc(-c3ncn4c3COC(c3ccc(F)cc3)C4)n2)cc1` (stereo unspecified), the Potency was “inactive”.
For `O=C(Nc1cccc(Cl)c1)C1CN(C2CCCCC2)C(=O)N1` (stereo unspecified), the Potency was inconclusive: 89.1 µM [inhibitor, partial curve].
With `COc1ccc(-c2[nH]nc3ncc(C(=O)Nc4ccn(C)n4)nc23)c(C)c1` the Potency was inconclusive: 50.1 µM [inhibitor, partial curve].
For `CC1=C[C@@H](CNC(=O)CC2(CC(=O)O)CCCC2)[C@H](C(C)C)C[C@H]1Cc1nc2ccccc2[nH]1`, the Potency was “inactive”.
With `COc1ccc(CCC(=O)NCC2CCCCC(=O)N2)cc1` (stereo unspecified) the Potency was “inactive”.
In the case of `O=C(c1cccc(Cl)c1)N1CCCC2(CN[S+](=O)([O-])c3cccnc3N2)C1` (stereo unspecified), the Potency is reported as “inactive”.
For `COCCNC(=O)C(C)[C@@H]1CC[C@@]2(C)CC[C@H](NC(=O)c3cccc(F)c3)[C@@H](C)[C@@H]2[C@H]1O` (stereo partly specified), the Potency was “inactive”.
For `Cc1ccccc1NC(=O)c1cnc2c(c1)N(C(=O)Cc1ccc(C(C)C)cc1)CCC2`, the Potency was active: 89.1 µM.
For `COc1cncc([C@@H](NC(=O)c2ccc(CO)o2)C2CC(O)C2)c1` (stereo partly specified), the Potency was “inactive”.
For `Oc1ccc(-c2nc(C3CC3)nc3c2CN(Cc2ccc(F)cc2)CC3)cc1`, the Potency was inconclusive: 50.1 µM [inhibitor, partial curve, poor fit].
With `COc1ccc2c(c1)C(CN1CCN(c3ccc4oc(C(=O)O)cc4c3Cl)CC1)=CC(C)(C)CO2` the Potency was inconclusive: 70.8 µM [inhibitor, partial curve, poor fit].
With `CCCNC(=O)c1cccc2c1CCN2S(=O)(=O)c1ccccc1F` the Potency was “inactive”.
In the case of `CC(=O)Nc1ccc(C(=O)N2CCn3c(nnc3C3CCCN3)C2)cc1` (stereo unspecified), the Potency is reported as “inactive”.
In the case of `O=C(CN1C(=O)NC2(CCCCC2)C1=O)Nc1cccc(C(F)(F)F)c1`, the Potency is reported as inconclusive: 50.1 µM [inhibitor, partial curve, poor fit].
With `CCCn1cc2c3c(cccc31)CN(C(=O)Cc1ccc(OC)cc1)CC2` the Potency was inconclusive: 39.8 µM [inhibitor, partial curve].
In the case of `COCCn1c(=O)c(C(=O)N2CCN([S+](=O)([O-])c3cccs3)CC2)nc2cccnc21`, the Potency is reported as “inactive”.
With `O=C(c1ccccc1F)N1CCC2(C1)C(=O)Nc1ccccc12` (stereo unspecified) the Potency was “inactive”.
With `Cc1noc2c(NC3CCOCC3)cc(-c3ccccn3)nc12` the Potency was inconclusive: 100 µM [inhibitor, partial curve, poor fit].
For `COCC1CCN(Cc2cc3cc4c(cc3nc2-c2ccc(Cl)cc2)OCO4)C1` (stereo unspecified), the Potency was inconclusive: 8.91 µM [inhibitor, full curve, poor fit].
In the case of `COc1ccccc1-c1ncc(CN2CCCC3(CCNCC3)CC2)cn1`, the Potency is reported as inconclusive: 79.4 µM [inhibitor, partial curve, poor fit].
With `CNC(=O)c1cn2c(n1)CN(S(=O)(=O)c1cccc(OC)c1)CC2` the Potency was “inactive”.
For `COc1cccc(N2C(=O)NC(=NC3CCCCC3)C23CCN(C(=O)c2ccccc2)C3)c1` (stereo unspecified), the Potency was “inactive”.
In the case of `O=C(N1CCCC1c1nc(CCOc2ccc(F)cc2)no1)C1(c2ccccc2)CC1` (stereo unspecified), the Potency is reported as inconclusive: 44.7 µM [inhibitor, partial curve].
In the case of `CCC1CN(Cc2cccc(C)n2)CCC(=O)N1Cc1ccccc1` (stereo unspecified), the Potency is reported as inconclusive: 89.1 µM [inhibitor, single point].
In the case of `O=C(NCCc1ccccc1F)c1cn2cc(-c3ccc(C(F)(F)F)cc3)sc2n1`, the Potency is reported as “inactive”.
For `CCCN(CC1CCOC1)S(=O)(=O)c1cccc(OC)c1` (stereo unspecified), the Potency was “inactive”.
In the case of `O=C(c1ccc(Cl)nc1)N1CCCC(C(=O)N2CCC(N3CCOC3=O)CC2)C1` (stereo unspecified), the Potency is reported as “inactive”.
With `O=C1CC(c2ccccc2)N(C(=O)C2CC2)CCCN(C(=O)CCCc2ccccc2)CCN1` (stereo unspecified) the Potency was “inactive”.
With `CC(=O)Nc1ccc2nnc(-c3ccc(C(=O)N4CCCCCC4)cc3)n2c1` the Potency was inconclusive: 70.8 µM [inhibitor, single point].
In the case of `COc1ccc(-c2cc(N3CCCC(NC(=O)c4ccccc4F)C3)n[nH]2)cc1` (stereo unspecified), the Potency is reported as inconclusive: 50.1 µM [inhibitor, partial curve, poor fit].
With `CC(C)NC(=O)N1Cc2[nH]cnc2C[C@H]1C(=O)NCc1ccc(Cl)cc1` the Potency was “inactive”.
